Some of the results follow. Results with a measured potency or affinity are listed apart.
The molecules below were run on Acinetobacter baumannii. Conditions: Concentration 32 ug.mL-1; ASSAY_TEST Inhibition of Bacterial Growth; detection method Absorption (OD600); MEDIA CAMHB; plate type 384well; NBS; CORNING #3640; time 18 hr.
`C#CCNc1ncccn1` gave an Inhibition of -6.96%.
For `CCOC(=O)c1cc2cc(OCc3ccccc3)ccc2[nH]1`, the Inhibition was 1.97%.
Work on `CN(C)c1nc2nc3c(c(N)c2c(-c2ccccc2)c1C#N)CCCC3` yielded an Inhibition of 20.04%.
In the case of `O=C(COc1ccc2ccccc2c1)N/N=C/c1c[nH]c2ccccc12`, the Inhibition was -7.76%.
Work on `CC1Cc2c(Cl)nc3nc4c(c(N)c3c2NC1=O)CCCC4` (centres undefined) yielded an Inhibition of 5.24%.
`N#Cc1c(Cl)nc(NC2CCN(Cc3ccccc3)CC2)c(C#N)c1-c1ccccc1` was tested, and the Inhibition was 2.69%.
For `N#Cc1cc(C#N)c(N2CCCCC2)nc1Cl`, the Inhibition was 15.18%.
Molecule `Cn1ccnc1C1c2ccc3cccnc3c2Oc2nc3c(c(N)c21)CCCCC3` (centres undefined) has an Inhibition of 1.29%.
`C#CCNc1nc(NCC#C)c(C#N)cc1C#N` gave an Inhibition of 6.24%.
In the case of `N#CC1=C(N)Oc2ccc3ccccc3c2C1`, the Inhibition was 7.93%.
For `N#Cc1cccnc1Cl`, the Inhibition was 0.23%.
Molecule `CC1CN(C)c2c(C#N)c(-c3ccccc3)c(C#N)c(=N)n21` (centres undefined) has an Inhibition of -2.62%.
With `N#CC1(Br)C(=NBr)Oc2ccc3ccccc3c2C1c1ccc([N+](=O)[O-])cc1` (centres undefined) the Inhibition was -0.28%.
`CCOC(=O)c1cc2cc(O)ccc2n1C(=O)OC(C)(C)C` showed an Inhibition of 12.98%.
`COc1ccc2cc(C=O)c(Cl)nc2c1` showed an Inhibition of 14.73%.
With `N#CC1=C(N)Oc2c(ccc3ccccc23)C1c1ccc(O)cc1` (centres undefined) the Inhibition was 7.57%.
For `COc1ccc2c(c1)cc(/C=C/[N+](=O)[O-])n2C`, the Inhibition was -3.35%.
In the case of `COc1ccc(-c2cc(-c3cc4c(C)cc(C)cc4nc3Cl)cc(=O)[nH]2)cc1`, the Inhibition was 3.87%.
Molecule `COc1cccc(C2c3c(ccc4ccccc34)OC(=NBr)C2(Br)C#N)c1` (centres undefined) has an Inhibition of 10.23%.
In the case of `N#CC1(Br)C(=N)Oc2ccc3ccccc3c2C1c1cccc([N+](=O)[O-])c1` (centres undefined), the Inhibition was 3.74%.
`CCOC(=O)C1=C(C)OC(N)=C(C#N)C1c1ccc([N+](=O)[O-])cc1` (centres undefined) gave an Inhibition of 12.84%.
`COc1ccc(C2c3ccc4ccccc4c3Oc3nc4c(c(N)c32)CCCC4)c(OC)c1` (centres undefined) was tested, and the Inhibition was -16.53%.
For `CCOc1nc2nc3c(c(N)c2cc1C#N)CCCC3`, the Inhibition was 13.15%.
In the case of `CCOC(=O)C1=C(C)Oc2nc3c(c(N)c2C1c1ccccc1OC)CCC3` (centres undefined), the Inhibition was -5.85%.
`COc1ccc(C2c3c(ccc4ccccc34)OC(=N)C2(Br)C#N)cc1` (centres undefined) gave an Inhibition of -2.55%.
In the case of `CC(C(=O)O)c1c[nH]c2ccccc12` (centres undefined), the Inhibition was -5.35%.
`C#CCNc1[nH]c2ccc(O)cc2c1C#N` showed an Inhibition of 17.07%.
`C#CCN(C)c1nc(NCCCC2CCN(Cc3ccccc3)CC2)c(C#N)cc1C#N` showed an Inhibition of -1.05%.
Work on `O=C1OC(c2ccccc2)=NC1=Cc1ccc(Cl)cc1` yielded an Inhibition of 2.33%.
